Measured values taken from publication PMC10668032.
The other results are listed elsewhere or left out. At the low end of the ranking the order means little.

biological target: SIX1-Q177R homeodomain (UniProt Q15475); assay: universal protein binding microarray; settings: Universal all-10-mer PBM (8x60K, AMADID 030236), 300 nM GST-tagged protein, Alexa Fluor 488 anti-GST; buffer, salt, pH and temperature not stated; high values mean tight binding; most listed sequences are background and not binding sites; double strand, one strand shown

| Sequence | binding signal |
| --- | --- |
| GATCCTGC | 0.0647 E-score |
| ATGAGTTG | -0.187 E-score |
| TCTACAAA | -0.168 E-score |
| ACGCTGAC | -0.0388 E-score |
| ACCTCGCC | 0.131 E-score |
| TGATTACA | -0.0749 E-score |
| CTATGCCC | -0.0692 E-score |
| GCTCGGCC | -0.217 E-score |
| AATGCCCT | -0.232 E-score |
| TATTTCGA | -0.0987 E-score |
| GAGCTCAC | -0.155 E-score |
| CGAGCAGA | -0.159 E-score |
| CGCGCGCA | -0.00187 E-score |
| GGCTCCAC | 0.0334 E-score |
| CCAGATAG | -0.13 E-score |
| ACGCACTG | 0.0161 E-score |
| AATTTGCA | -0.0182 E-score |
| AGGGCCGA | -0.168 E-score |
| AAACAACA | 0.166 E-score |
| GGCTAGCC | 0.079 E-score |
| CCGATGAA | -0.0526 E-score |
| CGCAAAAA | -0.0293 E-score |
| CGTAGCTC | -0.0122 E-score |
| AGCTAGCT | -0.106 E-score |
| AGTCTATC | -0.0489 E-score |

| Sequence | binding signal |
| --- | --- |
| TAGGCAAA | -0.253 E-score |
| CAGCTTTA | -0.212 E-score |
| CACAGAGG | -0.014 E-score |
| GGCAATTA | -0.106 E-score |
| ATTAAGCA | -0.167 E-score |
| CATTGACA | 0.045 E-score |
| AAATTGGT | -0.052 E-score |
| GCTCACCC | -0.0316 E-score |
| AACTGTCG | -0.038 E-score |
| CGCCTTTA | -0.0635 E-score |
| TGTTCCAA | -0.0255 E-score |
| CGTAAAGA | -0.116 E-score |
| CATGAAGA | -0.0214 E-score |
| CTACGGCA | -0.182 E-score |
| GACCGCTA | -0.159 E-score |
| ACGTTCAG | -0.0188 E-score |
| AAGCCCCA | -0.0567 E-score |
| TACGAGCA | 0.141 E-score |
| ACGTGCTG | -0.0225 E-score |
| AAAGACTT | -0.343 E-score |
| GGCATGCA | -0.102 E-score |
| CGTAATCC | 0.123 E-score |
| CCCGGTAA | 0.0711 E-score |
| ATTGCAAT | -0.337 E-score |
| ACTGGGAG | 0.223 E-score |

| Sequence | binding signal |
| --- | --- |
| AAAAGGTA | -0.0105 E-score |
| ATTATCCG | 0.122 E-score |
| AAAAAGAA | -0.0124 E-score |
| GTGCGCTA | 0.0648 E-score |
| ACTAACTC | -0.039 E-score |
| ATTAGAAA | -0.00517 E-score |
| GACAGGAC | -0.24 E-score |
| CCTGGGCC | -0.00605 E-score |
| GATCAGAC | -0.183 E-score |
| CAAAAACC | -0.00872 E-score |
| CGCGAAAG | -0.059 E-score |
| CAGATGGA | -0.0102 E-score |
| CGGGTTAA | 0.145 E-score |
| GCAAATAA | -0.183 E-score |
| ATACCCCG | 0.304 E-score |
| GGGCCCCA | -0.2 E-score |
| CGGCTTGC | -0.0796 E-score |
| AGGTGGCG | 0.0222 E-score |
| AGGGCTCG | -0.0814 E-score |
| CCAGGCCG | 0.0107 E-score |
| CTACACGA | 0.388 E-score |
| ATAGAATA | -0.0994 E-score |
| ATCCCTGA | 0.0972 E-score |
| CAATGACC | 0.104 E-score |
| ATAAACCC | 0.16 E-score |

| Sequence | binding signal |
| --- | --- |
| AGATTTCC | -0.23 E-score |
| AAGCGCAT | -0.0898 E-score |
| ATCGGGTA | 0.146 E-score |
| GAATAGCA | 0.0258 E-score |
| AATCTCAG | -0.146 E-score |
| GCCCGTGA | -0.0769 E-score |
| AACAGCTG | -0.367 E-score |
| AAAACTGT | -0.268 E-score |
| TAGAGGCA | -0.139 E-score |
| CGAGTTAA | 0.0324 E-score |
| GACACCTC | 0.483 E-score |
| CGCACATC | -0.246 E-score |
| ACGGCGGC | -0.0774 E-score |
| CTAACTGC | -0.309 E-score |
| CTAGGAAC | -0.195 E-score |
| ACCGGGTA | 0.212 E-score |
| CACCTCCA | 0.293 E-score |
| GCCGGACA | 0.0328 E-score |
| AAAATGGC | -0.264 E-score |
| GGGCACCC | 0.0795 E-score |
| ATCTTCGA | -0.0712 E-score |
| AGAATGCA | -0.136 E-score |
| CGGTACCG | -0.0924 E-score |
| AGAGGGAA | -0.31 E-score |
| ACGCATCC | -0.0157 E-score |

| Sequence | binding signal |
| --- | --- |
| GAGTTAGC | -0.0351 E-score |
| AAATCGGT | 0.028 E-score |
| CCGAGGTA | 0.0286 E-score |
| CATTTCCC | -0.101 E-score |
| AGCTTCTG | -0.273 E-score |
| ATTAACTG | -0.0563 E-score |
| AACCTACC | 0.0817 E-score |
| AGGTAGAG | 0.0812 E-score |
| TAGACTCA | -0.0767 E-score |
| GTAAGTCA | -0.0629 E-score |
| CTCACATC | -0.158 E-score |
| ATTGGGCA | -0.156 E-score |
| CCCCAAAC | 0.197 E-score |
| GCTAGTTA | -0.0567 E-score |
| ACGAGTCA | 0.0862 E-score |
| ATTGAAGG | -0.0607 E-score |
| CCTAGTAG | 0.0174 E-score |
| AGCCAGAA | -0.151 E-score |
| CATTTCGC | -0.282 E-score |
| GCGGTGCC | 0.11 E-score |
| AACCATAG | -0.178 E-score |
| CTTATTCC | -0.17 E-score |
| CTAAGGTA | -0.0464 E-score |
| AAGGCATA | -0.175 E-score |
| AATGAGCA | -0.101 E-score |

| Sequence | binding signal |
| --- | --- |
| CGGGACAC | 0.42 E-score |
| AAGAACAC | 0.423 E-score |
| ATGTCTAA | -0.24 E-score |
| GATCCGTA | 0.0371 E-score |
| ACAGATCG | -0.132 E-score |
| AGGTCCAC | -0.182 E-score |
| GGAAGCAC | 0.109 E-score |
| CATCCTCA | -0.0451 E-score |
| ATCTCTTC | -0.109 E-score |
| ACCGGCGT | 0.133 E-score |
| ACGGCACC | 0.146 E-score |
| TCCTCGCA | -0.116 E-score |
| CACCCCCC | 0.341 E-score |
| GATGGGAC | -0.259 E-score |
| CATCTAAG | -0.171 E-score |
| CTTAGACA | 0.145 E-score |
| GTGGATAA | 0.0203 E-score |
| CGCTCAGA | -0.11 E-score |
| AGGCTTGC | -0.205 E-score |
| AGAGTCAG | 0.125 E-score |
| GTCATAGA | -0.127 E-score |
| ACCTAGAC | -0.0286 E-score |
| CCCGATGA | 0.16 E-score |
| ATATACAT | -0.1 E-score |
| CTTGCGCC | -0.054 E-score |

| Sequence | binding signal |
| --- | --- |
| AAGACTGC | -0.261 E-score |
| AGTGAATC | 0.0443 E-score |
| AGATGACA | 0.165 E-score |
| ACTATTGC | -0.00475 E-score |
| TGACAAAA | -0.229 E-score |
| CTGCAACC | -0.00598 E-score |
| AAACGAAC | -0.0362 E-score |
| TCCCCGGA | 0.0682 E-score |
| CCGATCGC | -0.144 E-score |
| ACAAGCGC | -0.086 E-score |
| ATAAAATA | 0.0895 E-score |
| AGAACTAC | -0.0342 E-score |
| AATACCTC | 0.0743 E-score |
| GAAATTTA | -0.225 E-score |
| ACAGCCAT | -0.0329 E-score |
| AATCATCC | -0.22 E-score |
| CTGCGTGC | 0.0965 E-score |
| AATATCCG | -0.02 E-score |
| CGAGCGTA | -0.0884 E-score |
| GCACTTGA | 0.12 E-score |
| GCACTACC | 0.0861 E-score |
| ACGTGTCG | 0.383 E-score |
